About 14,000 (4.5%) of roughly 310,000 compounds showed an effect of 50% or more. The effect is printed as a negative number. The list shows a part of the results.
The compounds below were run against human ether-à-go-go-related gene (hERG) potassium channel (human, UniProt Q12809) (assay: primary screen, population patch clamp on CHO cells stably expressing hERG).
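Also: peak tail current of the secondary pulse compared with the same well before compound.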

human ether-à-go-go-related gene (hERG) potassium channel, sequence (Q12809 whole entry, looked up): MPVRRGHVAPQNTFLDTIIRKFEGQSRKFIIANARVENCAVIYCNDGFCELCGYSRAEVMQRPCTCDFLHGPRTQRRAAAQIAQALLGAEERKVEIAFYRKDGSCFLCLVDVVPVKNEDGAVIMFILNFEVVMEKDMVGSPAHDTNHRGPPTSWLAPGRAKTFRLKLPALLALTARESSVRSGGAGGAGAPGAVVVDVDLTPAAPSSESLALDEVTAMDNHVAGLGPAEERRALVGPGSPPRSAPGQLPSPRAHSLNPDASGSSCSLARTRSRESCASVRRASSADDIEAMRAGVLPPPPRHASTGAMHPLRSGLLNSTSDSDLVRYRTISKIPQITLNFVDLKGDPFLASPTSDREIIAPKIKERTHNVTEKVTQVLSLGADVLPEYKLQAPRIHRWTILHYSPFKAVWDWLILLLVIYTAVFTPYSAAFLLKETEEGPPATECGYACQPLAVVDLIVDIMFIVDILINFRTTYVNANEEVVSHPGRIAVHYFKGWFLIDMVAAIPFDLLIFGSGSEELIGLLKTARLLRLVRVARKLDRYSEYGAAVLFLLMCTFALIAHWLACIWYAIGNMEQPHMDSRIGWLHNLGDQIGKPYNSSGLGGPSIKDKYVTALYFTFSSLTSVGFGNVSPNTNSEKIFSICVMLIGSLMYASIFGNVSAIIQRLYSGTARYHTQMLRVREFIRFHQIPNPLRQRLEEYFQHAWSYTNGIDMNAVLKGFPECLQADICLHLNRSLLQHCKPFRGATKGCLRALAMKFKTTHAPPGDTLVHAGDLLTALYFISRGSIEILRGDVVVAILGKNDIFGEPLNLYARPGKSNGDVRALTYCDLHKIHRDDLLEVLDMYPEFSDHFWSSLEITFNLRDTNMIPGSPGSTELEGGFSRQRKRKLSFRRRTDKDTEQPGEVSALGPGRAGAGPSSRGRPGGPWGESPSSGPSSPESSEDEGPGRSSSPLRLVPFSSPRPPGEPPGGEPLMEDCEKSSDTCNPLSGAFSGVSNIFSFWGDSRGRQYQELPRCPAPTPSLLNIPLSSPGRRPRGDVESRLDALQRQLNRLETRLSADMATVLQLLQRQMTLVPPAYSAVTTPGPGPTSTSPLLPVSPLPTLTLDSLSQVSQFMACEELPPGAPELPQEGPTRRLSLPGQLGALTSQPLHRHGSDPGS

| Compound | hERG current change (%, negative = inhibition) at 10uM [%] |
| --- | --- |
| COc1ccccc1N1CCN(C2=Nc3cccc4cccc2c34)CC1 | -71.5 |
| CCOc1ccc(NC(=S)N2CCC(N(C)CCN3CCOCC3)CC2)cc1 | -15.9 |
| Cc1cc(C)n(-c2ccc(C(=O)C(C#N)c3nc4ccccc4n3C)cc2)n1 (stereo not drawn) | -7.73 |
| CN1C(=O)C2(OCCCO2)c2cc(Cl)ccc21 | 19.3 |
| COc1ccc([N+](=O)[O-])cc1NCc1ccccc1.O=C(O)C(=O)O | 2.96 |
| COc1ccc(S(=O)(=O)N(CC(=O)N2CCN(C)CC2)C2CCCCC2)cc1OC | -7.66 |
| Cc1cc(Cl)ccc1C(=O)C1CCCN(C(=O)c2nonc2C)C1 (stereo not drawn) | -26.3 |
| O=C(Cc1cn2ccsc2n1)Nc1cccc2cnccc12 | 9.76 |
| CC(=O)C1=C(O)C(=O)N(Cc2cccnc2)C1c1ccccc1 (stereo not drawn) | 8.83 |
| Cc1nc(C(F)(F)F)c(C(=O)NC(=O)Nc2ccc(OC(F)(F)F)cc2)s1 | -13.4 |
| O=C(CCn1c(=O)[nH]c2ccsc2c1=O)N1CC(=O)N(CCc2ccccc2)C(=O)C1 | -0.115 |
| O=C(NCCS(=O)(=O)N1CCN(c2ccccc2F)CC1)c1ccc(Cl)cc1 | -55.5 |
| COc1ccc2oc(=N)c(C(=O)Nc3cccc(C)c3C)cc2c1 | 9.06 |
| COC(=O)/C(=C/Nc1ccccc1)[N+](=O)[O-] | -7.37 |
| CC(C)Oc1cccc(C(=O)NC2=NCCS2)c1 | -4.17 |
| COc1ccc(NC(=O)C(Sc2nnc(-c3ccncc3)n2-c2ccccc2C)c2ccccc2)cc1Cl (stereo not drawn) | -18 |
| COc1ccccc1/C=C/C(=O)OCC(=O)c1c(N)n(C)c(=O)n(C)c1=O | 2.04 |
| CCCNC(=S)NC1CC2CCCC(C1)N2CC(C)C.Cl (stereo not drawn) | 13.1 |
| CCCC(=O)NC(C)c1nc(-c2ccc(C)cc2)no1 (stereo not drawn) | 15.3 |

| Compound | hERG current change (%, negative = inhibition) at 10uM [%] |
| --- | --- |
| COC(=O)C(C)Oc1ccc(=O)[nH]n1 (stereo not drawn) | 4.33 |
| Cc1ccc(-n2c(O)c(/C=N/c3ncn[nH]3)c3ccccc3c2=O)cc1 | 15.8 |
| CCN(CC)C1=CC(=O)OC12CCCCC2 | 6.92 |
| O=C(COc1ccccc1)NCC(=O)N/N=C/c1cccs1 | -7.57 |
| COCCN1CC(=O)N2C(c3cccc(C)c3)c3[nH]c4ccccc4c3C[C@H]2C1=O (stereo partly drawn) | -43.9 |
| CC1CCN(C(=O)c2cc(Cl)nc3ccccc23)CC1 | 2.15 |
| O=S1(=O)CCC(n2ncc3c2/C(=C/c2ccccc2)CC3)C1 (stereo not drawn) | 38.4 |
| COc1ccc(Br)cc1CNc1ccccc1.O=C(O)C(=O)O | 9.4 |
| COC(=O)c1ccc(CNC(=O)COC(=O)CC23CC4CC(CC(Br)(C4)C2)C3)cc1 | 1.34 |
| COc1ccc2c(c1)c1nc3n(c(=O)c1n2CC(=O)Nc1ccccc1)CCS3 | 16.2 |
| COc1ccc(/C=C/c2ccc3c(Br)ccc(O)c3n2)cc1 | 9.55 |
| CCN(CC)c1ccc(/C=N/NC(=O)c2nnn(-c3nonc3N)c2C(C)C)c(O)c1 | 19.8 |
| CCNC(=O)NC(=O)CSc1nc2ccccc2n1CCOC | -9.5 |
| CCCCCC(=O)N1CC2(CC(c3cccc(NC(=O)COc4ccc(Cl)cc4)c3)=NO2)C[C@@H]1C(N)=O (stereo partly drawn) | -77 |
| CSCC[C@H](NC(=O)Nc1ccc(S(N)(=O)=O)cc1)C(=O)O | 9.48 |
| COc1ccc(-c2ccc(=O)n(Cc3cccc([N+](=O)[O-])c3)n2)cc1 | -21.2 |
| CC(=O)Nc1ccc(Nc2c([N+](=O)[O-])c(=O)n(-c3ccccc3)c3ccccc23)cc1 | 6.57 |
| Cc1ccc2oc(C(=O)N3CCN(CCO)CC3)c(C)c2c1 | 13.7 |
| CCOC(=O)c1sc(NC(=O)CSc2nc3c(cc2C#N)CCCCC3)c(C#N)c1C | -2.01 |

| Compound | hERG current change (%, negative = inhibition) at 10uM [%] |
| --- | --- |
| COC(=O)c1c(C)[nH]c(C)c1-c1ccccc1Cl | -17.6 |
| FC(F)(F)c1cccc(/C=N/NC(=S)NC2CCCCC2)c1 | 16.7 |
| COC(=O)C1=C(N)Oc2cc(C)n(CC3CCCO3)c(=O)c2C1c1ccc(Cl)c(Cl)c1 (stereo not drawn) | 3.95 |
| O=C(Nc1ccc(Oc2ccc(Cl)cc2)c(Cl)c1)c1cc(I)cc(I)c1O | 11.4 |
| Cn1c(O)c(C=NC2CCN(Cc3ccccc3)CC2)c(=O)n(C)c1=O | -20.4 |
| COC(=O)c1sc(NC(=O)c2csc3c2CCCC3)nc1C | 0.85 |
| CC1(C)CC(=O)C2=C(C1)OC(N)=C(C#N)C2Cc1ccccc1 (stereo not drawn) | -8.21 |
| S=c1[nH]nc(-c2ccco2)n1-c1ccc(Cl)cc1 | 1.73 |
| COC(=O)c1sccc1NC(=O)c1c(Cl)cnn1C | -14.6 |
| CCOC(=O)C1=C(O)C(=O)N(Cc2ccccc2)CC1 | 7.78 |
| COc1ccc(-c2sc3cc4c(cc3c2C#CCO)OCO4)cc1 | 9.76 |
| CCN(CC)CCNC(=O)C(C)c1nn(CC)c(=O)c2ccccc12.Cl (stereo not drawn) | 7.49 |
| COC(=O)C1CCN(CC(=O)Nc2sc3c(c2C#N)CCC3)CC1 | -8.65 |
| COC(=O)C(Cc1ccccc1)NC(=O)CNC(=O)c1sc2ccccc2c1Cl (stereo not drawn) | 12.3 |
| COc1cccc(-c2nn[nH]n2)c1O | 9.02 |
| COc1cc(O)c(C(CCN2CCCC(C)C2)c2ccc(N(C)C)cc2)c(OC)c1 (stereo not drawn) | -29.5 |
| Cc1ccccc1N1C(=O)CC(N2CCN(C(=O)c3ccco3)CC2)C1=O (stereo not drawn) | 12 |
| CCOC(=O)NC(NC(=O)OCC)C(=O)c1ccc(F)cc1 | -7.77 |
| COc1ccc(N2CCN(Cc3nc4c(c(=O)[nH]c(=O)n4C)n3CCCc3ccccc3)CC2)cc1 | -41.8 |
